Measured values as given in the GPR68 mutational scans of Howard et al. (2025).
Scores with a large standard error are left out. Not listed are two conditions whose scores span a narrow range. In variant names, del marks residues removed and ins residues inserted between the two positions. For part of these data: How much ogerin was present is not stated here.

B1: GPR68, Q15743 (parent)
chain: MGNITADNSSMSCTIDHTIHQTLAPVVYVTVLVVGFPANCLSLYFGYLQIKARNELGVYLCNLTVADLFYICSLPFWLQYVLQHDNWSHGDLSCQVCGILLYENIYISVGFLCCISVDRYLAVAHPFRFHQFRTLKAAVGVSVVIWAKELLTSIYFLMHEEVIEDENQHRVCFEHYPIQAWQRAINYYRFLVGFLFPICLLLASYQGILRAVRRSHGTQKSRKDQIQRLVLSTVVIFLACFLPYHVLLLVRSVWEASCDFAKGVFNAYHFSLLLTSFNCVADPVLYCFVSETTHRDLARLRGACLAFLTCSRTGRAREAYPLGAPEASGKSGAQGEEPELLTKLHPAFQTPNSPGSGGFPTGRLA

Experiments:
[1] = variants of: B1; test: cAMP reporter score (Enrich2 score, wild type = 0); higher = more signal; HEK293T, FACS bins
[2] = variants of: B1; test: surface expression score (Enrich2 score, wild type = 0); higher = more signal; HEK293T, FACS bins

| Variant | cAMP reporter score ([1]; pH 5.5) | cAMP reporter score ([1]; pH 6) | cAMP reporter score ([1]; pH 6, modulator: ogerin) | cAMP reporter score ([1]; pH 6.5, modulator: ogerin) | surface expression score [2] |
| --- | --- | --- | --- | --- | --- |
| MGNITADNSSMSCTIDHTIHQTLAPVVYVTVLVVGFPANCLSLYFGYLQIKARNELGVYLCNLTVADLFYICSLPFWLQYVLQHDNWSHGDLSCQVCGILLYENIYISVGFLCCISVDRYLAVAHPFRFHQFRTLKAAVGVSVVIWAKELLTSIYFLMHEEVIEDENQHRVCFEHYPIQWWQRAINYYRFLVGFLFPICLLLASYQGILRAVRRSHGTQKSRKDQIQRLVLSTVVIFLACFLPYHVLLLVRSVWEASCDFAKGVFNAYHFSLLLTSFNCVADPVLYCFVSETTHRDLARLRGACLAFLTCSRTGRAREAYPLGAPEASGKSGAQGEEPELLTKLHPAFQTPNSPGSGGFPTGRLA [A180W] | 0.661 | -1.03 | 0.362 | -0.254 | -1.59 |
| MGNITADNSSMSCTIDHTIHQTLAPVVYVTVLVVGFPANCLSLYFGYLQIKARNELGVYLCNLTVADLFYICSLPFWLQYVLQHDNWSHGDLSCQVCGILLYENIYISVGFLCCISVDRYLAVAHPFRFHQFRTLKAAVGVSVVIWAKELLTSIYFLMHEEVIEDENQHRVCFEHYPIQYWQRAINYYRFLVGFLFPICLLLASYQGILRAVRRSHGTQKSRKDQIQRLVLSTVVIFLACFLPYHVLLLVRSVWEASCDFAKGVFNAYHFSLLLTSFNCVADPVLYCFVSETTHRDLARLRGACLAFLTCSRTGRAREAYPLGAPEASGKSGAQGEEPELLTKLHPAFQTPNSPGSGGFPTGRLA [A180Y] | 0.947 | 1.07 | 0.571 | -0.252 | -0.057 |
| A180_Q182del | -0.79 | -1.08 | -1.08 | -1.08 | -0.859 |
| A180_W181insG | -1.15 | -0.466 |  | -2.15 | -0.399 |
| A180del | -2.02 |  | -0.41 | -0.441 | -0.375 |
| MGNITADNSSMSCTIDHTIHQTLAPVVYVTVLVVGFPANCLSLYFGYLQIKARNELGVYLCNLTVADLFYICSLPFWLQYVLQHDNWSHGDLSCQVCGILLYENIYISVGFLCCISVDRYLAVAHPFRFHQFRTLKAAVGVSVVIWAKELLTSIYFLMHEEVIEDENQHRVCFEHYPIQAAQRAINYYRFLVGFLFPICLLLASYQGILRAVRRSHGTQKSRKDQIQRLVLSTVVIFLACFLPYHVLLLVRSVWEASCDFAKGVFNAYHFSLLLTSFNCVADPVLYCFVSETTHRDLARLRGACLAFLTCSRTGRAREAYPLGAPEASGKSGAQGEEPELLTKLHPAFQTPNSPGSGGFPTGRLA [W181A] | 1.03 | -0.241 | -0.253 | 0.128 | 1.3 |
| MGNITADNSSMSCTIDHTIHQTLAPVVYVTVLVVGFPANCLSLYFGYLQIKARNELGVYLCNLTVADLFYICSLPFWLQYVLQHDNWSHGDLSCQVCGILLYENIYISVGFLCCISVDRYLAVAHPFRFHQFRTLKAAVGVSVVIWAKELLTSIYFLMHEEVIEDENQHRVCFEHYPIQACQRAINYYRFLVGFLFPICLLLASYQGILRAVRRSHGTQKSRKDQIQRLVLSTVVIFLACFLPYHVLLLVRSVWEASCDFAKGVFNAYHFSLLLTSFNCVADPVLYCFVSETTHRDLARLRGACLAFLTCSRTGRAREAYPLGAPEASGKSGAQGEEPELLTKLHPAFQTPNSPGSGGFPTGRLA [W181C] | -0.549 | -0.087 | -0.609 | -0.567 | -0.623 |
